# The other results are listed elsewhere or left out.
# B1: chr7:92612324:92612425:-|3pUTR|ENSG00000105810|msi1|total|mutant (ssRNA)
# RNA: GGGAGUUCUACAGUCCGACGAUCAUCCAACACAAGCAGUCUUGCCGUCCGGGCAUUUUGAAGCAGACCGCCGAGUAAGAACUCCGUGACUACAGCUUAUUCUUCUGUAACAUAUGGUUUCAAACAUCUUUGCCAAAAGCUAAGCAACAGAGGAUUGAGCAUCA
# B2: chr8:27776916:27777017:+|CDS|ENSG00000171320|unk|FALSE|unique (ssRNA)
# RNA: GGGAGUUCUACAGUCCGACGAUCAAACCACAAGUUACACUCCAGGGUGGAGCAGCAUUUUUUGUUAGAAAAAAAUCUUCUCUUAGAAAAUCGUCCCUGGAAAAUGAGCCGUCACUGGGACGCACCCAAAAGAGUAAAUCAGAACAACAGAGGAUUGAGCAUCA
# B3: ENSG00000198589:be:win_151|CDS|ENSG00000198589|bound_else_gene|NA|bound_elsewhere_windowed (ssRNA)
# RNA: GGGAGUUCUACAGUCCGACGAUCUUGACCGGUUUGGUUGAAGUUGGAGAAGUAUCCAAUAGGGAUAUUGUAGAAACUGUCUUUAACCUGUUGGUAGGAGGACAGUUUGAUCUGGAAAUGAAUUUCAUUAUCCAAGAAGGUGAGCAACAGAGGAUUGAGCAUCA
# B4: chr15:60347444:60347559:-|3pUTR|ENSG00000182718|msi1_unk|total|mutant (ssRNA)
# RNA: GGGAGUUCUACAGUCCGACGAUCUAACAGUCCCCGUGGCCAUCCCUGUGAGGGUGACGUCCGCAUUACCCCCAACCUCAUUUCCGUUGCCUAAGCAUUGCCUGGCCUUCCUGUCCCGUCUCUCCUGUAAGCCAAAGAAAUGAACAACAGAGGAUUGAGCAUCA
# B5: chr14:51255895:51255996:+|3pUTR|ENSG00000139921|msi1_unk|FALSE|overlapping (ssRNA)
# RNA: GGGAGUUCUACAGUCCGACGAUCGUGAAUCCAUUAGAUUUACAGUAUCGUAAUAUACAAGUUUUCUUUAAAGCCCUCUCCUUUAGAAUUUAAAAUAUUGUACCAUUGAAGAGUUUGGAUGUGUAACUUGUGAUGCCUUAGAAACAACAGAGGAUUGAGCAUCA
# B6: chr2:216122066:216122255:+|CDS|ENSG00000079246|unk|total|mutant (ssRNA)
# RNA: GGGAGUUCUACAGUCCGACGAUCCCAUGGGCCUUCCUUUCCACUAAAAGGAAUUACCGAACAGCAAAAAGAAGGUCUUGAGACCGUGAAAAUGGUGAUGAUAUCUUCCGAAGGUGAAGAUGGGUUGGAUGAAAUUUAUUCAUUCAACAGAGGAUUGAGCAUCA
# B7: chr15:83017406:83017507:-|3pUTR|ENSG00000064726|msi1|FALSE|unique (ssRNA)
# RNA: GGGAGUUCUACAGUCCGACGAUCGGCCUAAUAAAAUGCCCAAGAAAAUAUUCAGUGCAUUUAUAGAGAAGGAUAUUUUGUAGUAGUAUAGUAAUGUGUUAUGUAGUACAGUUUUAAAGCUAUAAAUGGAAUUUUGUGUAAAUUCAACAGAGGAUUGAGCAUCA
# B8: chr6:113953301:113953428:-|CDS|ENSG00000196591|unk|FALSE|unique (ssRNA)
# RNA: GGGAGUUCUACAGUCCGACGAUCAAAAACCAAAACUUAUGGAUUUGUUUUCAGGUAUCAUCAGAGAGUCUUAUAUAUUGAUAUAGAUAUUCAUCAUGGUGAUGGUGUUGAAGAAGCUUUUUAUACAACAGAUCGUGUAAUGACCAACAGAGGAUUGAGCAUCA
# B9: chr2:216672581:216672718:-|3pUTR|ENSG00000115461|msi1|FALSE|unique (ssRNA)
# RNA: GGGAGUUCUACAGUCCGACGAUCCACUCCACCAGUCCCCGGUCGCCAGCCGGAGUCUCCUCUCUACCGCCACUGUCACACCGUAGCCCACAUGGAUAGCACAGUUGUCAGACAAGAUUCCUUCAGAUUCCGAGUUGCCUACCGCAACAGAGGAUUGAGCAUCA
# B10: chr21:25881503:25881610:-|3pUTR|ENSG00000142192|msi1_unk|total|mutant (ssRNA)
# RNA: GGGAGUUCUACAGUCCGACGAUCACAAACCCGUUUUAUGAUUUACUCAUUAUCGCCUUUUGACAGCUGUGCUGUAACACAAGCCGAUGCCUGAACUUGAAUUAAUCCACACAUCAGUAAUGUAUUCUAUCUCUCUUUACAUUUCAACAGAGGAUUGAGCAUCA
# B11: chr8:103332422:103332528:+|3pUTR|ENSG00000164930|msi1|FALSE|unique (ssRNA)
# RNA: GGGAGUUCUACAGUCCGACGAUCUUUUUUAACAUUUAGAAUAUUACAUUUUGUAUUAUACAGUACCUUUCUCAGACAUUUUGUAGAAUUCAUUUCGGCAGCUCACUAGGAUUUUGCUGAACAUUAAAAAGUGUGAUAGCGAUACAACAGAGGAUUGAGCAUCA
# B12: chr13:113097702:113097803:+|3pUTR|ENSG00000126217|unk|FALSE|unique (ssRNA)
# RNA: GGGAGUUCUACAGUCCGACGAUCAAAGAAAAUACAAAGAUGCAGUUUCUGCAGGGUGUGGCGUGGACCAGUGCUGCCGACCAUAGCUCAGAGAGCCCUGCCCCUGCCUCACUGCACUGCAGCCUCCUCGGAGGCCGCACCUCCCAACAGAGGAUUGAGCAUCA
# B13: chr1:6525536:6525637:-|3pUTR|ENSG00000162408|msi1|FALSE|unique (ssRNA)
# RNA: GGGAGUUCUACAGUCCGACGAUCACAGUUUGUGUGCCAUUAAAACAGAGAUUCCUCAGAAAGUUCUUCAGGGACCUGGUUAUUAGAAUCAGGAUAAAAAUAAGGAAACUGGGGCCAUUACAAUGUACCGAGAAGGAAGGAAGACAACAGAGGAUUGAGCAUCA
# B14: ENSG00000153989:stop:overlap|stop_codon|ENSG00000153989|stop_codon|NA|stop_codon (ssRNA)
# RNA: GGGAGUUCUACAGUCCGACGAUCAUGAGGACUUUUUCUCUGCCCUUCGUCAAUAUGCAGCCUGUGAACAGCGUCUGGGAAAGUAGUGGUCAUUGGUUGCAUAAUUUGAUUUGAGGCUUGUGGAGGAAAGGAACCAAGUGACUCCAACAGAGGAUUGAGCAUCA
# Molecular target: MSI1 full-length (mouse, UniProt Q61474 1-362)
# Sequence of UniProt Q61474 (Q61474 whole entry): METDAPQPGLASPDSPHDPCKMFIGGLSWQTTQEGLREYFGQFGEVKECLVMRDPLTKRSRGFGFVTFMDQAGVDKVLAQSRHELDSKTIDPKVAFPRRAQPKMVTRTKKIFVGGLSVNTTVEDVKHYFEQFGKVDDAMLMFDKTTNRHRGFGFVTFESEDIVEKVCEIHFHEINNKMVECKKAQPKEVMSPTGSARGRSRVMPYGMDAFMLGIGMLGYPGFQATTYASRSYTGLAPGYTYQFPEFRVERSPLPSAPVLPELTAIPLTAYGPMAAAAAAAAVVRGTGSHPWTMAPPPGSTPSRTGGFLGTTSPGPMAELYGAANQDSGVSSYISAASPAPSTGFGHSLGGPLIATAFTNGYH
# Experiment: nsRBNS (natural sequence RNA bind-n-seq); RBNS binding buffer (assumed for nsRBNS): 25 mM Tris pH 7.5, 150 mM KCl, 3 mM MgCl2, 0.01% Triton X-100, 500 ug/ml BSA, 20 U/ml SUPERase-In, 4 C; UNK is unkempt and MSI1 is Musashi-1; names of the RNAs are library labels; protein concentration not given here; high values mean tight binding
row,Binder,binding signal [enrichment R]
1,B1,0.596
2,B2,1.48
3,B3,2.2
4,B4,0.538
5,B5,5.27
6,B6,0.285
7,B7,44.9
8,B8,0.581
9,B9,0.785
10,B10,0.396
11,B11,51.5
12,B12,0.489
13,B13,5.92
14,B14,0.421
